PubChem BioAssay AID1645887 (National Center for Advancing Translational Sciences (NCATS), 2021)
Values joined by “and” are separate entries in the source; they are usually repeats but may differ in a detail not shown here. Equal entries are not always repeated. The campaign covered roughly 16,000 compounds. About 40 (0.2%) were called active. Not shown: some 1% with an inconclusive outcome. The call rests on the fitted dose curve; in most records, active means well fitted activation curve with a large enough effect; inconclusive means small, poorly fitted or top-dose-only effect, or another doubt; inactive means no such curve, though single readings can be large or run the other way. The list shows a part of the results.

Each compound was assayed against Rap guanine nucleotide exchange factor 4 (Homo sapiens) (UniProt Q8WZA2) (assay: Validation qHTS for agonist of cAMP-regulated guanine nucleotide exchange factor 4 (EPAC2)). Conditions: EPAC2 Rap1B BODIPY-GDP exchange, fluorescence; activation: stronger effect = higher value.
Chain of UniProt Q8WZA2 (Q8WZA2 whole entry, looked up): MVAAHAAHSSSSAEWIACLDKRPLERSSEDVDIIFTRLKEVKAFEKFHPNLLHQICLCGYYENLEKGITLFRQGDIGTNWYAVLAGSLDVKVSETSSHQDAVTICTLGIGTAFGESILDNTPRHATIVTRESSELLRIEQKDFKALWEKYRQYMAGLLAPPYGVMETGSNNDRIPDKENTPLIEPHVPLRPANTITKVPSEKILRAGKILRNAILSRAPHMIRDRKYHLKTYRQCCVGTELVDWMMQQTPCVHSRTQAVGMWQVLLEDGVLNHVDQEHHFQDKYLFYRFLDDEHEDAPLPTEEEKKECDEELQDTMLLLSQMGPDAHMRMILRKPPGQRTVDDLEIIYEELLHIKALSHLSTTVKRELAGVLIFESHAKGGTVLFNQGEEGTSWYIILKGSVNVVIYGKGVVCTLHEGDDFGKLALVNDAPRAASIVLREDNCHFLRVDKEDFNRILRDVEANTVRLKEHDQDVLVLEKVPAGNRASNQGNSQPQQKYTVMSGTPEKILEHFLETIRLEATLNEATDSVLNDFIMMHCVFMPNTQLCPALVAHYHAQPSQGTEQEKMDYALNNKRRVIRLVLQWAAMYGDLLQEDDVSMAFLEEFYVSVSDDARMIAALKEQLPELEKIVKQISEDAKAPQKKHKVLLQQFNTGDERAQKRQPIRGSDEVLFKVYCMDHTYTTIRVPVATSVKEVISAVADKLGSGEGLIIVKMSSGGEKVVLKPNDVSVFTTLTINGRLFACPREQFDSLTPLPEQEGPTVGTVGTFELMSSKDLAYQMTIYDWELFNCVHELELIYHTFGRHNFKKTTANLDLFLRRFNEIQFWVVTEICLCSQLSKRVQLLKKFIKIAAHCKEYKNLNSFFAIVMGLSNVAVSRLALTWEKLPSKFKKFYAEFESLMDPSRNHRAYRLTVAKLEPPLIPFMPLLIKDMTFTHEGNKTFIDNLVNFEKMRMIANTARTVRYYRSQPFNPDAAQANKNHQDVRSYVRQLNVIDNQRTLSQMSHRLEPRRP
Summary of the method: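 Fluorescent exchange assay: 100 nM EPAC2 with 250 nM RAP1B-BODIPY-GDP and 50 uM GDP; compound added, 5 min at room temperature, then read (ex 480/em 540 nm) every 5 min for 30 min. Normalized to 6.5 mM cAMP agonist control.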
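Further: exchange makes BODIPY-GDP fluorescence drop when released from Rap1B; series mostly up to about 150 µM.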
On the % scale 0 is the no-effect control and ±100 the full control effect.

activation, inactive:
C[C@@H]1CC[C@H]2[C@H](C)[C@H]3CC[C@H]4C5[C@@H](O)CC6=CC(=O)CC[C@]6(C)[C@H]5C[C@H]4C3C(=O)N2C1 (some centres undefined) -6.48%
Cn1cnc2c(F)c(Nc3ccc(Br)cc3Cl)c(C(=O)NOCCO)cc21 -16%
CCOC(=O)C[C@H]1c2cc(F)ccc2S(=O)(=O)N1C1CCCCC1 -12%
CC(C)Oc1ccc(C(=O)NCC2Cc3cc(F)cc(-c4cnccn4)c3O2)cc1 (centres undefined) -24.6%
CCN1CCN(C(=O)c2cc(NC(=O)COC)cc3nc(-c4ccncc4)n(C)c23)CC1 -20.5%
O=C1OC(C(O)CO)C(O)=C1O (centres undefined) -6.31%
COc1ccccc1-c1nccc(-n2ccnc2)n1 -17.9%
CN(Cc1cc(Br)cc(Br)c1N)C1CCCCC1 -8.49%
CCN(CC)C1CCN(C(=O)c2cnn(-c3nccc(-c4ccco4)n3)c2C(C)C)C1 (centres undefined) 2.52%
COc1ccccc1-c1nc(N2CCOCC2)c2ccccc2n1 7.99%
OC[C@H]1OC([S-])[C@H](O)[C@@H](O)[C@@H]1O.[Au+] (some centres undefined) -8.77%
COc1ccc2c(=O)cc(-c3ccc(O)cc3)oc2c1 -3.27%
C[C@H](Cc1ccc(O)c(O)c1)[C@@H](C)Cc1ccc(O)c(O)c1 -20.7% and -78.2%
O=C(c1cccc(Cl)c1)N1CCCC(Cn2cc(C(=O)N3CCCC3)nn2)C1 (centres undefined) 3.75%
CCn1c(-c2ccccc2F)nc2cc(C(=O)NC(c3ccccn3)C(F)(F)F)cc(NC(C)=O)c21 (centres undefined) -11.2%
NCCc1ccc(O)c(O)c1 -10.5% [middle of 4 runs]
CC(=O)N1CCC[C@@]2(CCN(C(=O)Nc3cccc(C#N)c3)C2)C1 -19.1%
O=C(Nc1ccccc1)N1CCCC2(CCN(C(=O)c3cnccn3)CC2)C1 13.1%
c1ccc(CNc2ncncc2-c2ccoc2)cc1 -7.31%
CCCCCC=CCC=CCCCCCCCC(=O)OCC -22.6%
CC(=O)NCCNc1ncnc2ccc(-c3c(C)noc3C)cc12 -13.6%
NC(N)=NC(N)=Nc1ccccc1 -10.6% [middle of 4 runs]
O=c1c(-c2ccccc2)nc2cnc(N3CCOCC3)nc2n1Cc1cccs1 -14.4%
Cc1c(Nc2ncccc2C(=O)O)cccc1C(F)(F)F -1% and -15%
CC[C@H](c1ccc(O)cc1)[C@@H](CC)c1ccc(O)cc1 -12.6%
O=C(Cc1ccccc1)NO -7.82%
CN(Cc1ccon1)C(=O)c1cnn(-c2nccc(-c3ccc4c(c3)OCO4)n2)c1C1CC1 -2.7%
CCN(Cc1ccncc1)Cc1ccc2c(c1)CN(C(=O)c1ccc(OC)cc1)CCO2 2.51%
CCCCC(=O)O[C@]1(C(=O)CO)[C@H](C)C[C@H]2[C@@H]3CCC4=CC(=O)C=C[C@]4(C)[C@@]3(F)[C@@H](O)C[C@@]21C -20.2%
O=C(C[n+]1cccc(Br)c1)c1ccc(Br)cc1 -1.71%
COc1cc(N)c(Cl)cc1C(=O)OCCN1CCCCC1 -24.5%
COc1cccc(Cn2c(=O)c(-c3cccc(C#N)c3)nc3cnc(N4CCN(C)CC4)nc32)c1 -15.4%
Cc1cc(C)nc(-c2cccc3c2OC(CNC(=O)C2CCOC2)C3)n1 (centres undefined) -3.15%
CCCCC(=O)OCC(=O)[C@H]1[C@H](C)C[C@H]2[C@@H]3C[C@H](F)C4=CC(=O)C=C[C@]4(C)[C@@]3(F)[C@@H](O)C[C@@]21C -23.2%
Cc1ccn(CCC(=O)N2CCOc3ccc(C(O)C4CCCCC4)cc3C2)n1 (centres undefined) -23.3%
CC1c2cccc(O)c2C(O)=C2C(=O)[C@]3(O)C(O)=C(C(N)=O)C(=O)C(N(C)C)C3C(O)C21 (some centres undefined) -3.42%
C[C@@H]1CCN=C(N)S1 -0.438%
COc1cccc(-c2cncnc2NCc2ccccc2OC)c1 -8.46%
COCCn1c(=O)c(-c2ccccc2)nc2cnc(Nc3cccc(OC)c3)nc21 -9.54%
O=c1c(O)cc(C2Oc3cc(O)cc(O)c3CC2O)cc2c(C3Oc4cc(O)cc(O)c4CC3O)cc(O)c(O)c12 (centres undefined) -12.4%
CO[C@H]1[C@H](NC(=O)c2cccc(F)c2)c2ccccc2C12CCN(Cc1ccco1)CC2 -6.27%
CC(Oc1ccccc1)C(=O)N[C@@H]1C(=O)N2C(C(=O)OCC3CCCCC3)C(C)(C)S[C@H]12 (some centres undefined) -9.87%
CCCCCC(O)CCCC(=O)O (centres undefined) 1.86% and -5.89% and -24.8%
CCCCCc1c2c(cc(O)c1C(=O)O)OC(=O)c1cc(C(=O)CCCC)c(OC)cc1O2 -4.3%
O=C(c1cnccn1)N1CCC[C@@]2(CCN(C(c3ccccc3)c3ccccc3)C2)C1 -13.3%
N#Cc1cccc(NC(=O)N2CC[C@@]3(CCCN(C(=O)c4cccc(F)c4)C3)C2)c1 -5.37%
NC(=Nc1ccccc1)Nc1ccccc1 9.38% and -24.3%
CCCN(CC1CC1)c1nc(C)nc(Nc2c(Cl)cc(Cl)cc2Cl)c1Cl 0.128% and 4.79%
O=C(NCCc1nnc2n1CCN(Cc1ccc(F)c(F)c1)CC2)c1ccoc1 -3.36%
Nc1nc(Cl)c2ncn(C3OC(CO)C(O)C3O)c2n1 (centres undefined) -6.05%
O=S(=O)(c1ccccc1)N1CCC2(CCN(c3ccncc3)CC2)CC1 -10%
COc1ccccc1-c1ccnc(-n2ncc(C(=O)NCCCN3CCOCC3)c2C)n1 -10.4%
Cc1ccccc1C(=O)NC(C)c1nnc2n1CCN(Cc1ccc(F)cc1)CC2 (centres undefined) -2.09%
CC(=O)Nc1cc(C(=O)N2CCN(C(=O)c3ccco3)CC2)cc2ncn(CCc3ccccn3)c12 -21.2%
Cc1nc2ccccc2nc1CN1CCOc2ccc(C(C)(O)COc3ccccc3)cc2C1 (centres undefined) -0.995%
O=c1c(CCc2ccccc2)nc2cnc(N3CCNCC3)nc2n1CCc1ccccc1 -26.6%
COc1ccccc1-c1nccc(NCc2cccs2)n1 -23.3%
O=c1c(-c2ccccc2)nc2cncnc2n1-c1ccccc1 -3.26%
CS(=O)(=O)N1CCC[C@@]2(CCN(Cc3ccccc3)C2)C1 -15.1%
C1CCN2CC3CC(CN4CCCC[C@@H]34)C2C1 (some centres undefined) 4.55%
COCc1c(C(=O)NC2CCCC2)cnn1-c1nccc(-c2ccco2)n1 -11.3%
Cc1ccc(C(=O)N(Cc2cc3cccc(C)c3nc2N(C)C)CC2CCCO2)cc1 (centres undefined) -0.224%
COc1cc(C)c(CN2CCc3nnc(C(C)NC(=O)c4cc(F)ccc4F)n3CC2)cc1C (centres undefined) -2.72%
C[C@]12CCC(=O)C=C1CC[C@@H]1[C@@H]2[C@@H](O)C[C@@]2(C)[C@H]1CC[C@]2(O)C(=O)COP(=O)(O)O -8.98%
Cc1c([N+](=O)[O-])cnc2ccccc12 -13.5%
COC(=O)c1cccc(C(=O)N2CCc3c(cnc(C)c3CNC(=O)c3ccsc3)C2)c1 -21.7%
O=C1NC(c2cccc([N+](=O)[O-])c2)=CCN1c1ccccc1O -3.14% and 6.56%
CC(=O)OCC(=O)[C@@]1(O)CC[C@H]2[C@@H]3CCC4=CC(=O)C=C[C@]4(C)[C@H]3[C@@H](O)C[C@@]21C -5.28%
CN(C)c1ncnc2ccc(-c3cccnc3)cc12 -9.13%
O=C(Nc1cccc(C2=NCCN2)c1)Nc1cccc(C2=NCCN2)c1 3.56%
CCCOC(=O)c1ccc(N)cc1 -0.719%
Nc1ncnc2c1ncn2C1CCCC1 -15.2%
O=C(c1noc2c1CCCC2)N1CCOc2ccc(CN3CCN(c4ccccn4)CC3)cc2C1 -7.56%
CC(=O)c1ccc(-c2cc(F)cc3c2OC(CNC(=O)c2ccc[n+]([O-])c2)C3)s1 (centres undefined) 4.06%
CCC1CN(CCNC(=O)c2ccnc(Cl)c2)Cc2cc(OC)ccc2O1 (centres undefined) -14.6%
C[C@@H]1CN(Cc2ccc3c(c2)CN(C(=O)CN2CCOc4ccccc4C2)CCO3)C[C@H](C)O1 -1.21%
O[N+]1=CC=CCC1=S.On1ccccc1=S.[Zn] 13.1%
CC1(C)CC2C1CCC1(C)OC1CCC2(C)O (centres undefined) -8.56%
COc1cc(=O)n2c(c1C(=O)N(C)Cc1cscn1)CCN(C(=O)c1ccc(C)c(C)c1)CC2 -54.1%
Cc1[nH]c(C)c(Cl)c(=O)c1Cl -12.1%
CN1CCC2(CC1)CCN(C(=O)c1cc(C(F)(F)F)cc(C(F)(F)F)c1)CC2 6.87%
CNCC(=O)N[C@@H](CCCN=C(N)N)C(=O)N[C@H](C(=O)N[C@@H](Cc1ccc(O)cc1)C(=O)N[C@H](C(=O)N[C@@H](Cc1cnc[nH]1)C(=O)N1CCC[C@H]1C(=O)N[C@@H](C)C(=O)O)C(C)C)C(C)C 3.59%
CC(C)CN1CC[C@@]2(CCCN(C(=O)c3ccco3)C2)C1 -13.2%
CC1=CCc2c(cc3oc(C)cc(=O)c3c2O)OC1 -2.38%
